Hit rate of the full screen: of about 44,000 compounds, about 340 (0.77%) were called active. About 5% were inconclusive and are not listed. Calls come from the whole dose curve; as a rule, active = well fitted inhibition curve with a large enough effect; inconclusive = small, poorly fitted or top-dose-only effect; inactive = flat fitted curve, though single readings scatter. Some of the results follow.
Test: Acumen qHTS Assay for Inhibitors of the mTORC1 Signaling Pathway in MEF (Tsc2-/-, p53-/-) Cells: Sytravon;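 note: plate controls were DMSO for no effect and rapamycin for full effect; nearly all actives have a fitted effect of over 50% in size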
Conditions: phospho-rpS6 immunofluorescence/PI, 24 h; series mostly up to 38.3 µM; activity change, negative = inhibition: at the top concentration
How it was run: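 Compounds act on Tsc2-/-, p53-/- fibroblasts carrying an empty vector for 24 h before fixation and dual staining for phospho-S6 and DNA (propidium iodide). Values are percentages of cells above a rapamycin-defined pS6/PI threshold.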

Row | Structure (SMILES) | activity change, negative = inhibition
1 | Cc1cc(OCC(=O)N(Cc2ccc(N(C)C)cc2)CC2CCCO2)ccc1Cl (configuration not stated) | inactive: -1.03%
2 | Cc1cccc(C)c1NC(=O)c1sc(-n2nc(C)c(Cc3ccccc3)c2C)nc1C | inactive: -6.87%
3 | O=C(CSc1ncc(S(=O)(=O)c2ccc(Cl)cc2)c(=O)[nH]1)Nc1cccc(C(F)(F)F)c1 | inactive: 0.472%
4 | COc1ccc(-c2cc3nc(C)c(CCC(=O)NC4CCCCC4)c(C)n3n2)c(OC)c1 | inactive: 3.67%
5 | O=C(c1cccn1-c1nnc(N2CCCC2)s1)N1CCN(c2ccc(Cl)cc2)CC1 | inactive: -2.98%
6 | COc1cc(C2Nc3c(C)cc(C)cc3-c3cc(C)nn32)cc(OC)c1O (configuration not stated) | inactive: -20.6%
7 | Cc1ccc2c(c1)C(c1ccccc1)N(C(=O)Cc1ccc(F)cc1)CC(=O)N2 (configuration not stated) | inactive: 2.04%
8 | Cn1c(=O)[nH]c2cc(-c3noc(-c4ccc(C#N)cc4)n3)ccc21 | inactive: -2.83%
9 | CCCS(=O)(=O)NCCc1sc2nc(-c3ccc(F)cc3)nn2c1C | inactive: -12%
10 | CC(=O)Nc1ccc(S(=O)(=O)NCC2CCC(C(=O)NCCN(CC(C)C)CC(C)C)CC2)cc1 (configuration not stated) | inactive: 5.13%
11 | COc1ccc(Cn2c(C(=O)O)c(CNCCc3cc(OC)ccc3OC)c3ccc(C)cc32)cc1 | inactive: -6.14%
12 | COc1ccc(C2=NC(C)(C)N(CC(=O)Nc3cccc(C)c3)C2=O)cc1 | inactive: -2.91%
13 | CC1=C(C(=O)Nc2ccc(Cl)cc2)C(CC(C)C)n2nc(SCc3ccccc3C)nc2N1 (configuration not stated) | inactive: 1.53%
14 | Cc1ccc(S(=O)(=O)Nc2nc3n(n2)C(c2ccc(F)cc2)C=C(c2ccccc2)N3)cc1 (configuration not stated) | inactive: -2.73%
15 | COc1cc(C2C(=O)N(C3CCCCCC3)CC(=O)N2CCc2ccccc2)ccc1OC(C)C (configuration not stated) | inactive: 3.22%
16 | Cc1ccc(C)c(-n2c(N)c(C#N)c3nc4ccccc4nc32)c1 | inactive: 4.12%
17 | Cc1nc2ccn(Cc3ccco3)c(=O)c2cc1C(=O)NCc1ccccc1 | inactive: 1.79%
18 | COc1ccccc1CNS(=O)(=O)c1cnc(N)nc1 | inactive: -2.68%
19 | O=C(NCC(c1ccco1)S(=O)(=O)c1cccs1)c1ccccc1F (configuration not stated) | inactive: -1.15%
20 | COc1cccc(CNc2cc(C)nc3nc(-c4ccc(C)cc4)nn23)c1 | inactive: -11.1%
21 | COc1ccc(C2c3c(n(C)c4ccccc34)C(=O)N2CC(=O)Nc2cccc(F)c2)cc1 (configuration not stated) | inactive: -8.85%

Row | Structure (SMILES) | activity change, negative = inhibition
22 | CCCc1cc(=O)[nH]c2nnc(SCC)n12 | inactive: -0.0451%
23 | O=c1oc2ccc3ccccc3c2cc1-c1nnc(Nc2ccc(F)cc2)s1 | inactive: 0.244%
24 | Cc1ccc(N2CC(C)Cn3c2nc2c3c(=O)n(Cc3cccc(Cl)c3)c(=O)n2C)cc1 (configuration not stated) | inactive: 0.411%
25 | COc1ccc(NC(=O)c2oc3ccc(S(=O)(=O)N4CCOCC4)cc3c2C)cc1 | inactive: -22.6%
26 | Cc1ccc(-n2nc3c(=O)n(C(C)C(=O)NCc4ccco4)nc(C)c3c2C)cc1 (configuration not stated) | inactive: 0.0523%
27 | Cc1ccc(Cl)cc1N1CCN(CCCNC(=O)c2ccc3nc(N4CCCCC4)sc3c2)CC1 | inactive: -2.67%
28 | CCn1ccc2c(OCC(=O)Nc3ccccc3C(F)(F)F)cccc2c1=O | inactive: -5.98%
29 | O=C(NC1(C(F)(F)F)NC(=O)N(CCc2ccccc2)C1=O)c1ccc(Cl)cc1 (configuration not stated) | inactive: -3.21%
30 | COC(=O)CC1Oc2ccc(Cl)cc2-n2cc(-c3ccccc3)nc21 (configuration not stated) | inactive: -9.12%
31 | Oc1c(C(c2ccccc2)N2CCC(O)CC2)sc2nc(-c3ccco3)nn12 (configuration not stated) | inactive: -0.661%
32 | CCOc1ccc(CCNC(=O)c2cnc3sc(N4CCCC4)nn3c2=O)cc1 | inactive: 0%
33 | CCCCOc1cccc(C(=O)N(Cc2ccc(C)o2)c2ccccn2)c1 | inactive: -21.4%
34 | COc1ccc(NS(=O)(=O)c2ccc3[nH]c4c(c3c2)CCCC4)cc1OC | inactive: -17.1%
35 | Cc1ccc(C)c(NC(=O)c2ccc(CN3CC(=O)N4CCCCC4C3=O)cc2)c1 (configuration not stated) | inactive: -0.265%
36 | CCn1c(CN2CCCCC2)nc2cc(NC(=O)c3cc(OC)c(OC)c(OC)c3)ccc21 | inactive: -12.8%
37 | CC(=O)Nc1ccc(NC(=O)c2ccc3c(c2)N(Cc2cccc(Cl)c2)C(=O)c2ccccc2S3(=O)=O)cc1 | inactive: -17.7%
38 | CCOC(=O)C(C)Sc1ccc2nnc(CCNS(=O)(=O)c3ccccc3)n2n1 (configuration not stated) | inactive: 2.55%
39 | CC1N=C2c3ccccc3N=C(SCC(=O)NCCc3ccccc3)N2C1=O (configuration not stated) | inactive: 0%
40 | COc1ccc(Nc2c3c(nc4ccc(NC(=O)c5ccc(F)cc5)cc24)CCCC3)cc1OC | inactive: 0.239%
41 | CN(Cc1ccccc1)C(=O)c1nc(-c2ccc(Cl)cc2)n2c1CCCCC2 | inactive: -15.7%
42 | COc1cc2ccccc2cc1C(=O)Nc1cccc(-c2nc3cc(C)c(C)cc3o2)c1C | inactive: 4.5%

Row | Structure (SMILES) | activity change, negative = inhibition
43 | COc1ccc2oc(=O)c(C(=O)NCCc3c(C)[nH]c4c(Cl)cccc34)cc2c1 | inactive: -26.4%
44 | O=C(Nc1cccc(Cl)c1Cl)c1ccc2c(c1)N(Cc1cccc(Cl)c1)C(=O)c1ccccc1S2(=O)=O | inactive: -7.29%
45 | Cc1nc2nc(NCc3cccc(Br)c3)[nH]n2c(=O)c1Cc1ccccc1 | inactive: 3.05%
46 | CCc1ccccc1NC(=O)N1CCN(c2cc(-c3noc(C)n3)ccc2C)CC1 | inactive: -3.81%
47 | CCOC(=O)c1cccc(NC(=O)C(CC(C)C)N2Cc3ccccc3C2=O)c1 (configuration not stated) | inactive: -6.55%
48 | O=S(=O)(Nc1ccc(Cl)cc1)c1ccc(NS(=O)(=O)c2ccc3c(c2)OCCO3)cc1 | inactive: 0.231%
49 | Cc1ccc(CN(C(=O)COc2cccc([N+](=O)[O-])c2)c2ccccn2)o1 | inactive: 1.18%
50 | Cn1nnnc1SCCNCc1ccc(F)cc1 | inactive: -0.409%
51 | COc1cc(-c2noc(-c3ccc(NCc4cccnc4)c([N+](=O)[O-])c3)n2)cc(OC)c1OC | inactive: 0.183%
52 | COc1ccc(OC)c(CNC(=O)CCCn2ccc3cc(S(=O)(=O)N4CCCC4)ccc32)c1 | inactive: -14.3%
53 | CCCc1cc(=O)[nH]c(Nc2ccc(C(=O)O)cc2)n1 | inactive: -3.82%
54 | CCOc1ccc(CCNC(=O)CCCn2nc(C)c3sc4ccccc4c3c2=O)cc1OCC | inactive: 0.279%
55 | O=C(CSc1nccn1-c1ccccc1)Nc1nc2ccccc2s1 | inactive: -9.34%
56 | CCOc1ccc(CNC(=O)CCC(=O)N2CC(C)Sc3ccccc32)cc1 (configuration not stated) | inactive: 0.613%
57 | COC(=O)CC1c2cc(OC)c(OC)cc2CCN1C(=O)Nc1ccc(C)cc1Cl (configuration not stated) | inactive: 0%
58 | COc1ccccc1Nc1nn2c(=O)c3ccc(C(=O)NCCCOC(C)C)cc3nc2s1 | inactive: -10.7%
59 | CCn1c2ccccc2c2nnc(SCCN3CCCCC3)nc21 | inactive: -11.8%
60 | N#C/C(=C/c1cn(Cc2ccc(F)cc2)c2ccccc12)C(=O)Nc1cccc(Cl)c1 | inactive: 9.87%
61 | CCc1ccc(CNC(=O)c2cccc(-n3cnc4cccnc43)c2C)cc1 | inactive: -10.2%
62 | CCOc1ccc(OCC)c(NC(=O)Cn2ncc3c4ccccc4n(Cc4ccccc4)c3c2=O)c1 | inactive: 0.128%
